Reference: the supplement of paper PMC4967469
Lines with a small IC50 respond at low doses; fits outside the tested doses are given as limits. The AUC spans the tested range (256-fold, ending at the top dose) of the same fit; the more sensitive the line, the further below 1. For part of these data: Where the top dose is marked as inferred, it was derived from the fitted curves, not read from the paper.

Columns and labels:
Assay in all cases: Viability of human cancer cell lines after 72 h of drug (GDSC screen)
[1] = compound: C=CCNC1=C2C[C@@H](C)C[C@H](OC)[C@H](O)[C@@H](C)/C=C(\C)[C@H](OC(N)=O)[C@@H](OC)/C=C\C=C(/C)C(=O)NC(=CC1=O)C2=O [17-AAG]; details: top dose 1 µM
Method: (§1)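 Human cancer cell lines in 384-well plates, medium with 10% serum, drug for 72 h over a 256-fold dose range (nine 2-fold or five 4-fold steps up to the top dose). Adherent lines were fixed and stained with the nucleic acid dye Syto60, suspension lines read with resazurin; signal relative to control wells, capped at 0 and 100%. One two-parameter sigmoid per drug and line, fitted in a mixed model over all curves with the slope shared within a line.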

[2] = compound: CCc1cc(-c2n[nH]c(C)c2-c2ccc3c(c2)OCCO3)c(O)cc1O [CCT018159]; details: top dose 10 µM; top dose inferred
Method: as §1

[3] = compound: CN(C)Cc1cccc(N=C(c2ccccc2)c2c(O)[nH]c3cc(C(=O)N(C)C)ccc23)c1 [BIX02189]; details: top dose 20 µM; top dose inferred
Method: as §1

[4] = compound: COC(=O)CNC(=O)C(=O)OC [Dimethyloxalylglycine]; details: top dose 4000 µM; top dose inferred
Method: as §1

[5] = compound: COc1cccc2c1C(=O)c1c(O)c3c(c(O)c1C2=O)C[C@@](O)(C(=O)CO)C[C@@H]3O[C@H]1C[C@H](N)[C@H](O)[C@H](C)O1 [Doxorubicin]; details: top dose 1.024 µM
Method: as §1

[6] = compound: COc1cccc2cc(-c3nc([C@H]4CC[C@H](C(=O)O)CC4)n4ncnc(N)c34)[nH]c12 [OSI-027]; details: top dose 20 µM
Method: as §1

[7] = compound: CS(=O)(=O)c1ccc(C(=O)Nc2ccc(Cl)c(-c3ccccn3)c2)c(Cl)c1 [Vismodegib]; details: top dose 10 µM; top dose inferred
Method: as §1

[8] = compound: Cc1cnc(Nc2ccc(F)cc2Cl)nc1-c1c[nH]c(C(=O)N[C@H](CO)c2cccc(Cl)c2)c1 [VX-11e]; details: top dose 5.12 µM; top dose inferred
Method: as §1

[9] = compound: Cc1cnc(Nc2ccc(OCCN3CCCC3)cc2)nc1Nc1cccc(S(=O)(=O)NC(C)(C)C)c1 [TG101348]; details: top dose 10.24 µM
Method: as §1

[10] = compound: O=C(c1ccc(C(=O)N2CCC(N3CCCC3)CC2)c(Nc2ccccc2)c1)N1CCC(N2CCCC2)CC1 [UNC1215]; details: top dose 1 µM; top dose inferred
Method: as §1

Cell Line	AUC [1]	IC50 [1]	AUC [2]	IC50 [2]	AUC [3]	IC50 [3]	AUC [4]	IC50 [4]	AUC [5]	IC50 [5]	AUC [6]	IC50 [6]	AUC [7]	IC50 [7]	AUC [8]	IC50 [8]	AUC [9]	IC50 [9]	AUC [10]	IC50 [10]
201T (lung adenocarcinoma, adherent)	0.649	180 nM	0.96	> 10 µM	0.947	> 20 µM	0.173	18.8 µM	0.354	22.7 nM	0.745	7.67 µM	0.981	> 10 µM	0.967	> 5.12 µM	0.836	9.43 µM		
AGS (stomach, adherent)	0.314	20.1 nM	0.824	5.16 µM	0.976	> 20 µM	0.646	605 µM	0.277	16.1 nM	0.898	> 20 µM	0.988	> 10 µM	0.788	2 µM	0.888	9.5 µM		
DAN-G (pancreas, adherent)	0.783	365 nM	0.974	> 10 µM	0.987	> 20 µM	0.991	> 4000 µM	0.974	> 1020 nM	0.703	4.28 µM	0.991	> 10 µM	0.983	> 5.12 µM	0.951	> 10.2 µM		
EHEB (lymphoid neoplasm, suspension)	0.899	> 1000 nM	0.897	> 10 µM			0.52	290 µM	0.582	118 nM			0.973	> 10 µM					0.962	> 1000 nM
FADU (head and neck, adherent)	0.263	13.6 nM	0.745	3.04 µM	0.98	> 20 µM	0.387	124 µM	0.597	117 nM	0.925	> 20 µM	0.988	> 10 µM	0.984	> 5.12 µM	0.932	> 10.2 µM		
GCIY (stomach, adherent)	0.863	> 1000 nM	0.9	> 10 µM	0.967	> 20 µM	0.389	119 µM	0.832	773 nM	0.264	0.239 µM	0.983	> 10 µM	0.967	> 5.12 µM	0.834	7.91 µM		
GMS-10 (glioma, adherent)	0.537	78.9 nM	0.835	6.53 µM	0.985	> 20 µM	0.641	611 µM	0.817	569 nM	0.96	> 20 µM	0.988	> 10 µM	0.987	> 5.12 µM	0.913	> 10.2 µM		
HuP-T4 (pancreas, adherent)	0.675	199 nM	0.969	> 10 µM	0.925	> 20 µM	0.402	133 µM	0.487	59 nM	0.49	1.17 µM	0.984	> 10 µM	0.716	1.36 µM	0.791	4.91 µM		
IGR-1 (melanoma, adherent)	0.884	852 nM	0.868	7.28 µM	0.941	> 20 µM	0.802	1700 µM	0.431	42.5 nM	0.977	> 20 µM	0.967	> 10 µM	0.773	1.75 µM	0.989	> 10.2 µM		
IM-9 (myeloma, suspension)	0.976	> 1000 nM	0.986	> 10 µM			0.875	3010 µM	0.48	57 nM			0.97	> 10 µM					0.982	> 1000 nM
JHU-011 (head and neck, adherent)	0.33	21.2 nM	0.863	8.42 µM	0.955	> 20 µM	0.58	414 µM	0.25	12.4 nM	0.428	0.799 µM	0.961	> 10 µM	0.929	> 5.12 µM	0.711	2.5 µM		
KMRC-1 (kidney, adherent)	0.802	528 nM	0.957	> 10 µM	0.971	> 20 µM	0.717	1070 µM	0.857	910 nM	0.876	> 20 µM	0.983	> 10 µM	0.9	> 5.12 µM	0.936	> 10.2 µM		
KP-1N (pancreas, adherent)	0.943	> 1000 nM	0.907	> 10 µM			0.636	604 µM	0.561	94.6 nM			0.984	> 10 µM					0.979	> 1000 nM
KYSE-140 (oesophagus, adherent)	0.961	> 1000 nM	0.916	> 10 µM	0.855	19.3 µM	0.794	2120 µM	0.459	48.6 nM	0.477	1.07 µM	0.977	> 10 µM	0.857	5.08 µM	0.785	5.02 µM		
KYSE-410 (oesophagus, adherent)	0.45	45.2 nM	0.911	> 10 µM	0.967	> 20 µM	0.191	27.7 µM	0.56	94.6 nM	0.694	4.56 µM	0.975	> 10 µM	0.958	> 5.12 µM	0.879	> 10.2 µM		
